Among all 200,000 compounds or so, about 4,500 (2.2%) were called active. This list was built around the results that the source calls inconclusive (neither active nor inactive); the mix of calls is not that of the screen. Calls come from the whole dose curve; as a rule, active = well fitted inhibition curve with a large enough effect; inconclusive = small, poorly fitted or top-dose-only effect, or effect the other way; inactive = flat fitted curve, though single readings scatter. Where the call is inconclusive, the potency comes from a doubtful curve fit.
The compounds below were run against Cruzipain (Trypanosoma cruzi) (UniProt P25779) (assay: qHTS Assay for Promiscuous and Specific Inhibitors of Cruzain (without detergent)). Details: purified cruzain, Z-FR-AMC fluorescence, no detergent.
In short: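 Purified cruzain at 1.5 nM, pre-incubated 15 min with compound at room temperature in 100 mM sodium acetate pH 5.5, 5 mM DTT, 0.00005% Triton X-100. Reaction started with 2 uM Z-FR-AMC; AMC fluorescence increase over 60 s gives rate.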
Note: nearly all actives have a fitted effect of over 40% in size.
Potency is the fitted concentration of half-maximal effect; tags give direction and shape of the fitted curve.
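Throughout, for max response, negative = inhibition: plate controls were enzyme without inhibitor for no effect and buffer without enzyme for full effect.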

Chain of UniProt P25779 (P25779 whole entry, looked up): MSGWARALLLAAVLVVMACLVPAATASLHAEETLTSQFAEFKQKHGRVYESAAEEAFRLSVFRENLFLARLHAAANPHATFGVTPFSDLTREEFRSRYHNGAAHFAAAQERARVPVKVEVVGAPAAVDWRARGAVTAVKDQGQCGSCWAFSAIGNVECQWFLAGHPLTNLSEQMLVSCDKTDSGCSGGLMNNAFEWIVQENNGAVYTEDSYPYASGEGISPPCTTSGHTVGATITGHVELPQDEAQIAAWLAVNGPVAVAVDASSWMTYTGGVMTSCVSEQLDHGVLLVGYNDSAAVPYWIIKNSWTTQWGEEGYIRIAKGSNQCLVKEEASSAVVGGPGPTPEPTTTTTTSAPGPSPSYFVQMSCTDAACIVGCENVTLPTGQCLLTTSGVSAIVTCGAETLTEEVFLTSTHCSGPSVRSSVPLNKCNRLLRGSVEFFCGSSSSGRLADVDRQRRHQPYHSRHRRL

Row | SMILES | Potency | max response, negative = inhibition
1 | CCc1ccc(CCC(=O)Nc2ncc(Cc3ccccc3Cl)s2)o1 | inconclusive: 31.6 µM [inhibitor, single point] | 
2 | Cc1n[nH]c(C)c1N=Nc1cc(Cl)ccc1Cl | inconclusive: 31.6 µM [inhibitor, single point] | 
3 | CC(C)(C)COS(=O)OCC(C)(C)C |  | inactive: 9.14%
4 | CC(=O)[C@@H](C)CCO[C@@]1(C)OCC[C@@H]1C |  | inactive: 7.2%
5 | O=c1c2oc3ccccc3c2ncn1Cc1ccc(Br)cc1 |  | inactive: -8.6%
6 | Cc1ccccc1CNC(=O)CCSCc1cnn(-c2ccccc2)c1-n1cccc1 | inconclusive: 39.8 µM [inhibitor, single point] | 
7 | CCOc1ccc(CCNC(=O)c2cc3c(-c4ccccc4F)nn(C)c3s2)cc1OCC | inconclusive: 31.6 µM [activator, single point] | 
8 | CCC(C)NC(=O)c1c(N)n(CCCOC)c2nc3ccccc3nc12 (stereo unspecified) | inconclusive: 31.6 µM [activator, single point] | 
9 | O=C(c1cc(-c2cccs2)nc2ccccc12)N1CCN(S(=O)(=O)c2cccc(F)c2)CC1 | inconclusive: 39.8 µM [inhibitor, single point] | 
10 | CCOC(=O)N1CCN(S(=O)(=O)c2ccc(F)c(C(=O)Nc3cc(C)cc(C)c3)c2)CC1 | inconclusive: 31.6 µM [activator, single point] | 
11 | Cn1c(CCN2CCCCCC2)nc2cc(NC(=O)Nc3ccccc3)ccc21 | inconclusive: 31.6 µM [inhibitor, single point] | 
12 | Cc1ccc(S(=O)(=O)NCC(=O)N(CC(=O)NCc2ccco2)Cc2cccs2)cc1 |  | inactive: -12%
13 | Cc1ccc(S(=O)(=O)N2CCC(=O)N(CCOCc3cccc(F)c3)CC2)cc1 | inconclusive: 39.8 µM [activator, single point] | 
14 | Cc1ccccc1NC(=O)CCC(=O)N/N=C/c1ccncc1 | inconclusive: 31.6 µM [inhibitor, single point] | 
15 | O=C(NCCc1ccc(Cl)cc1)c1ccc2c(c1)N(Cc1cccc(Cl)c1)C(=O)c1ccccc1S2(=O)=O | active: 10 µM | 
16 | COc1cc(NC(=O)C2=C(N3CCOCC3)/C(=C\c3ccc(Cl)cc3Cl)CC2)cc(OC)c1OC | inconclusive: 25.1 µM [activator, single point] | 
17 | O=c1cc(-c2ccccc2Cl)oc2ccc([N+](=O)[O-])c(O)c12 | inconclusive: 31.6 µM [inhibitor, single point] | 
18 | CCn1nc(C)c2c(-c3ccccc3)cc(=O)n(C(C)C(=O)NCCc3ccccc3)c21 (stereo unspecified) | inconclusive: 20 µM [activator, single point] | 
19 | CCOC(=O)c1cccc(P(C)(C)=O)c1 |  | inactive: -0.785%
20 | Cc1c(C(=O)O)sc2ncnc(N3CCCCC3C)c12 (stereo unspecified) |  | inactive: -11.6%
21 | Cc1ccc(S(=O)(=O)N2CCN(C(=O)CN3C(=O)NC4(CCOc5ccccc54)C3=O)CC2)cc1 (stereo unspecified) | inconclusive: 31.6 µM [activator, single point] | 
22 | Cc1sc2ncn(CC(=O)N(C)c3cccc(C(F)(F)F)c3)c(=O)c2c1S(=O)(=O)N1CCN(c2ncccn2)CC1 | inconclusive: 25.1 µM [activator, partial curve] | 

Row | SMILES | Potency | max response, negative = inhibition
23 | CCCc1nc(NCc2ccc3c(c2)OCO3)c2nnn(Cc3ccccc3Cl)c2n1 | active: 7.94 µM | 
24 | COc1ccc(C(=O)Nc2cccc(C)c2)cc1S(=O)(=O)N1CCOCC1 | inconclusive: 39.8 µM [activator, single point] | 
25 | c1ccc(CNc2ncnc3ccc(-c4ccc5c(c4)OCO5)cc23)cc1 |  | inactive: -16.4%
26 | Cc1ccc(CSc2nc3c(c(=O)[nH]2)CCC3)cc1 | inconclusive: 39.8 µM [inhibitor, single point] | 
27 | CCCCC(=O)Nc1nc(C)c(-c2csc(Nc3ccccc3OC)n2)s1 | inconclusive: 25.1 µM [inhibitor, single point] | 
28 | COc1ccc(CCn2c(=O)c3cccnc3n(CC(=O)Nc3c(C)cc(C)cc3C)c2=O)cc1OC |  | inactive: 10.5%
29 | COc1ccc(/C=C2\SC(=S)N(NC(=O)c3csc4c3CCCC4)C2=O)cc1 | active: 7.94 µM | 
30 | COc1cc(OC)c(NC(=O)Cn2cnc3nc4c(cc3c2=O)CCCC4)cc1Cl |  | inactive: 5.41%
31 | O=C(CSc1ccccn1)Nc1ccc2c(c1)C(=O)c1ccccc1C2=O | inconclusive: 39.8 µM [inhibitor, single point] | 
32 | CCOc1ccc(CNC(=O)Cc2ccc(NC(=O)N3CCCCc4ccccc43)cc2)cc1OC | inconclusive: 25.1 µM [activator, single point] | 
33 | Cc1ccc(NC(=O)C2CCC(CNS(=O)(=O)c3ccc4c(c3)C(C)(C)C(=O)N4C)CC2)cc1 (stereo unspecified) |  | inactive: -11.6%
34 | CCOc1ccccc1NC(=O)c1cccc(NC(=O)CC(c2ccccc2)c2ccccc2)c1 | inconclusive: 31.6 µM [inhibitor, single point] | 
35 | Cc1ccc(C2c3[nH]c4ccccc4c3CCN2C(=O)CCc2ccccc2)cc1 (stereo unspecified) | inconclusive: 39.8 µM [inhibitor, single point] | 
36 | O=c1[nH]c2cc(Br)cnc2nc1/C=C(\O)c1ccc(F)cc1 | active: 25.1 µM | 
37 | CCN(C(=O)CSc1nc2ccccc2n1CC(=O)N1CCCC(C)C1)c1ccccc1 (stereo unspecified) |  | inactive: -3.86%
38 | O=C(c1cccc2ccccc12)N1CCN(c2ccc([N+](=O)[O-])c(N3CCOCC3)c2)CC1 | inconclusive: 25.1 µM [activator, single point] | 
39 | O=C(Nc1cccc(NC(=O)c2ccc(-c3ccc(Br)cc3)o2)c1)c1ccccc1 | active: 5.01 µM | 
40 | O=C(Cc1ccccc1)NCC(=O)OCC(=O)c1cccc([N+](=O)[O-])c1 |  | inactive: -21.7%
41 | O=C(Nc1ccc(O)c(-c2nc3ccccc3o2)c1)C1(c2ccc([N+](=O)[O-])cc2)CCCC1 | active: 3.98 µM | 
42 | Clc1ccc(-c2noc(-c3cccnc3N3CCN(c4ccccc4)CC3)n2)cc1 |  | inactive: 2.27%
43 | COC(=O)c1ccc(NC(=O)CC2C(=O)N(c3ccc(C)cc3)C(=O)N2Cc2ccc(OC)cc2)cc1 (stereo unspecified) | inconclusive: 39.8 µM [activator, single point] | 
44 | O=C(c1nn2c(C(F)(F)F)cc(-c3cccs3)nc2c1Cl)N1CCCc2ccccc21 | inconclusive: 39.8 µM [inhibitor, single point] | 

Row | SMILES | Potency | max response, negative = inhibition
45 | CCOc1ccc(NC(=O)Cn2cc(C(=O)c3ccccc3)c(=O)c3cc4c(cc32)OCCO4)cc1 |  | inactive: 12.2%
46 | COc1cc2c(cc1OC)C1N(CC2)C(=O)CCC12C(=O)CCCC2=O (stereo unspecified) |  | inactive: -12.6%
47 | O=S(=O)(Nc1ccc(-c2nc3cccnc3s2)cc1)c1ccc(Cl)s1 | inconclusive: 39.8 µM [inhibitor, single point] | 
48 | Cc1ccc(-c2[nH]c3ccccc3c2SCCNC(=O)c2cc3ccccc3oc2=O)cc1 | inconclusive: 39.8 µM [inhibitor, single point] | 
49 | Cc1ccc(N=C2C(=S)N(c3ccc(C)cc3)C(=N)N2/N=C/c2ccc(Cl)cc2)cc1 | active: 3.16 µM | 
50 | CC(C)(Oc1ccc(Cl)cc1)C(=O)Nc1nnc2n1CCS2 |  | inactive: -9.07%
51 | Cc1ccc2[nH]c3c(c2c1)CC/C(=C/c1ccccc1)C3=O | active: 12.6 µM | 
52 | Cc1ccc(NC(=O)c2ccc3c(c2)OCCO3)cc1S(=O)(=O)Nc1cccc(Cl)c1 | inconclusive: 31.6 µM [inhibitor, single point] | 
53 | COC(=O)N/N=C/c1ccc(OCCSc2ccc(Cl)cc2)c(OC)c1 | inconclusive: 39.8 µM [activator, single point] | 
54 | CC(=O)Nc1ccc(NC(=O)CCc2c(C)nc3c(c(C)nn3-c3ccccc3)c2C)cc1 |  | inconclusive: 32.5% [activator]
55 | CC(=O)Oc1ccc(/C=C/C(=O)CC2OC(Oc3cc(OC(C)=O)c4c(c3)O[C@@H](c3ccc(OC(C)=O)cc3)CC4=O)C(OC(C)=O)C(OC(C)=O)C2OC(C)=O)cc1 (stereo partly specified) |  | inactive: -3.32%
56 | COCCNC(=O)c1ccc2c(c1)N(Cc1c(F)cccc1Cl)C(=O)c1ccccc1S2 | inconclusive: 39.8 µM [activator, single point] | 
57 | O=C(Nc1ccccc1C(F)(F)F)N1CCC2(CC1)Oc1ccccc1C(=O)N2Cc1ccccc1F |  | inactive: -2.95%
58 | COc1ccc(-c2nnc(NC(=O)CSc3ccccc3)s2)cc1OC | inconclusive: 12.6 µM [inhibitor, partial curve, poor fit] | 
59 | CCCS(=O)(=O)c1snnc1C | inconclusive: 0.794 µM [inhibitor, single point] | 
60 | CCN(CC)C(=O)c1sc2nc(-c3cccs3)cc(-c3ccc(Cl)cc3)c2c1N | active: 31.6 µM | 
61 | Cc1c(NC(=O)CSc2ccc(Cl)cc2)cccc1-c1nc2cc(Cl)ccc2o1 | active: 25.1 µM | 
62 | CCC(c1nnnn1Cc1ccco1)N(Cc1cc2cc(OC)ccc2[nH]c1=O)C1CCCCC1 (stereo unspecified) | inconclusive: 31.6 µM [activator, single point] | 
63 | CCn1c(=O)cc(SCC(=O)N2CCN(c3ccccc3OC)CC2)c2ccccc21 | inconclusive: 31.6 µM [activator, single point] | 
64 | COc1ccc(CCNC(=O)Cn2nc(C)c3c(C)n(-c4ccc(C)cc4)nc3c2=O)c(OC)c1 |  | inactive: -1.68%
65 | COc1ccc(OC)c(NC(=O)CSC2=Nc3ccccc3C3=NC(CCC(=O)NCCc4ccccc4)C(=O)N23)c1 (stereo unspecified) | inconclusive: 39.8 µM [activator, single point] | 
66 | O=C(NCCC1=CCCCC1)c1ccc2c(c1)N(Cc1ccc(Cl)cc1)C(=O)c1ccccc1S2(=O)=O | active: 31.6 µM | 
